Assay results: article PMC4336329 (PLoS ONE, 2015)
The campaign covered roughly 310,000 compounds. About 14,000 (4.5%) showed an effect of 50% or more. The effect is printed as a negative number. Some of the results follow.

The compounds below were run against human ether-à-go-go-related gene (hERG) potassium channel (human, UniProt Q12809) (assay: primary screen, population patch clamp on CHO cells stably expressing hERG).
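Note: peak tail current of the secondary pulse compared with the same well before compound.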

Chain of human ether-à-go-go-related gene (hERG) potassium channel (Q12809 whole entry, looked up): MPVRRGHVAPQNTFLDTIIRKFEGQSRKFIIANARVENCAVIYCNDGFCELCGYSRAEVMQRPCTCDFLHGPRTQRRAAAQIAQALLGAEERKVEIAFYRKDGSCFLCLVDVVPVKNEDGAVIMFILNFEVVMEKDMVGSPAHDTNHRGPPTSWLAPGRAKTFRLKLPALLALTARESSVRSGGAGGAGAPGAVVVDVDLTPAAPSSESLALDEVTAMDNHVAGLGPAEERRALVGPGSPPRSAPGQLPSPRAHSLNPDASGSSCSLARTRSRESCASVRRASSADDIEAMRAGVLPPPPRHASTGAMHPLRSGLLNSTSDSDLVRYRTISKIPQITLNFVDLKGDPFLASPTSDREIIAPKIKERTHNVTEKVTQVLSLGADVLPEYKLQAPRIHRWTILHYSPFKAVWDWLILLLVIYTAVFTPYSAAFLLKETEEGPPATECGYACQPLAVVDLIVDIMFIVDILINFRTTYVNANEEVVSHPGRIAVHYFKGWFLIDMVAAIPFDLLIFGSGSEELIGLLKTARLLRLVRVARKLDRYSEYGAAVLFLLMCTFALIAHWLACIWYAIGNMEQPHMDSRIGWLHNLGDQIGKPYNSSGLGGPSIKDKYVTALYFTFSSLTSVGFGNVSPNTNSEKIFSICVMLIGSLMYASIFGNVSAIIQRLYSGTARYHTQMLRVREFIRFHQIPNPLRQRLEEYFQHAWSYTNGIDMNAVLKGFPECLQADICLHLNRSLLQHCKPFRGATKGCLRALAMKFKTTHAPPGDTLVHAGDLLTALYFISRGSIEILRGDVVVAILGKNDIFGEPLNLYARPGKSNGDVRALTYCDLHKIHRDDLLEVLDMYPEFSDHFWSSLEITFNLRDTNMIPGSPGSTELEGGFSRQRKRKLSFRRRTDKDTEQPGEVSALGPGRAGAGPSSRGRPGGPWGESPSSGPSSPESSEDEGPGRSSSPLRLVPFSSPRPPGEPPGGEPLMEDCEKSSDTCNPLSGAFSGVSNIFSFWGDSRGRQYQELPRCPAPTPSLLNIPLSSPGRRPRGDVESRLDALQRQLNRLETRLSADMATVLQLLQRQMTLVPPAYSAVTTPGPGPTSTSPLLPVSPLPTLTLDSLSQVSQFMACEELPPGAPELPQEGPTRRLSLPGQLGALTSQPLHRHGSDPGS

First: Cc1cc(C)nc(NC(=NCCc2c[nH]c3ccccc23)NC(=O)Nc2ccc(Cl)cc2)n1
Second: Cc1cc(C)nc(SCCCNCc2ccccc2)n1.Cl
The “hERG current change (%, negative = inhibition) at 10uM” value of the first is higher: 9.33% for the first, -3.19% for the second.

Going from `S=c1[nH]nc(Cc2cccs2)n1-c1cccc2ccccc12` to `COc1ccc(-n2cnnc2SCc2csc(-c3ccccc3)n2)cc1`, the “hERG current change (%, negative = inhibition) at 10uM” value falls from -10.4% to -36.7%.

Compared with `c1ccc(-c2nnsc2-c2ccccc2)cc1`, `CCOC(=O)c1cn(-c2ccccc2)nc1-c1cccnc1` is lower in “hERG current change (%, negative = inhibition) at 10uM” value: -3.66% for the first, -37.3% for the second.

Compared with `Oc1c(CN2CCCCC2)cc(Br)c2cccnc12`, `Cc1ccc(C)c2[nH]c(=O)c(CN(CCN3CCCC3)C(=O)Nc3cccc(Cl)c3)cc12` is lower in “hERG current change (%, negative = inhibition) at 10uM” value: 0.599% for the first, -74.1% for the second.

First: CSc1ccc(/C=C/C(=O)c2ccc(NC(C)=O)cc2)cc1
Second: COc1ccc(S(=O)(=O)N2CCOCC2)cc1NC(=O)CCNC(=O)c1ccc(Br)cc1
The “hERG current change (%, negative = inhibition) at 10uM” value of the first is higher: 12.6% for the first, -16.8% for the second.

Going from `Cc1ccc2nc(NCCCO)[nH]c2c1` to `Cc1cc(C)cc(OCC(=O)OC(C)C(=O)Nc2ccc(Cl)cn2)c1` (stereo not shown), the “hERG current change (%, negative = inhibition) at 10uM” value falls from 10% to 5.07%.

First: Cc1ccc(S(=O)(=O)N2CCOCC2)cc1C(=O)NC1CCCC1
Second: Cc1cccn2c(=O)c3cc(C(=O)NC4CCCC4)c(=N)n(CCc4ccccc4)c3nc12
The “hERG current change (%, negative = inhibition) at 10uM” value of the first is higher: 19.8% for the first, -74.5% for the second.

First: O=C(N/N=C/c1cccc(Br)c1)c1ccc(Cn2cc(Br)cn2)o1
Second: COc1ccc(C(=O)NCc2cccnc2)cc1OC
The “hERG current change (%, negative = inhibition) at 10uM” value of the first is lower: -40.9% for the first, 7.23% for the second.

First: CNC[C@@H](C)NC[C@@H](Cc1ccccc1)NCCc1ccccc1
Second: O=C(NCCCN1CCOCC1)C(Sc1ccccc1)c1ccccc1 (stereo not shown)
The “hERG current change (%, negative = inhibition) at 10uM” value of the first is lower: -19.7% for the first, -12.5% for the second.

Compared with `COc1ccc(C2=NOC(C(=O)NC3CCCCC3)C2)cc1OC` (stereo not shown), `COc1ccc(S(=O)(=O)Cc2ccc(C(=O)N3CCN(C4CCCCC4)CC3)o2)cc1` is lower in “hERG current change (%, negative = inhibition) at 10uM” value: -16.8% for the first, -32.7% for the second.

Going from `O=C(Nc1cccc(S(=O)(=O)NCc2ccco2)c1)c1cc(-c2ccc(F)cc2)nc2ccccc12` to `CCCS(=O)(=O)c1nc(S(=O)(=O)c2ccc(C)cc2)c(N2CCc3ccccc3C2)s1`, the “hERG current change (%, negative = inhibition) at 10uM” value rises from 3.15% to 5.34%.

Going from `C/C(=N\NC(=O)c1ccco1)c1ccc(C(=O)O)s1` to `CCN(CC(=O)NCc1cccs1)C(=O)c1ccc([N+](=O)[O-])o1`, the “hERG current change (%, negative = inhibition) at 10uM” value falls from -3.03% to -33.8%.

Compared with `COCCN(C(=O)COC(=O)C1CCC(C(C)(C)C)CC1)c1c(N)n(Cc2ccccc2)c(=O)[nH]c1=O` (stereo not shown), `CC(C)CN(C(=O)c1cccc(Cl)c1)c1c(N)n(Cc2ccccc2)c(=O)[nH]c1=O` is higher in “hERG current change (%, negative = inhibition) at 10uM” value: -2.61% for the first, 13.6% for the second.

Compared with `O=C(COc1ccc2c3c(c(=O)oc2c1)CCCC3)NCCCn1ccnc1`, `COCc1ccc(C(=O)N2CCCC(CCC(=O)NCc3ccccc3F)C2)o1` (stereo not shown) is higher in “hERG current change (%, negative = inhibition) at 10uM” value: -17.3% for the first, -2.18% for the second.

Going from `CCOC(=O)c1c(SCC(=O)Nc2nccs2)nc(C)c(C)c1C` to `CCCCCCn1c(CN2CCN(C(=O)OCC)CC2)nc2c1c(=O)n(C)c(=O)n2C`, the “hERG current change (%, negative = inhibition) at 10uM” value falls from 23.7% to -53.5%.

First: NC(=O)c1sc2nc3c(c(-c4ccc(Cl)cc4)c2c1N)CCCC3
Second: CCOc1ccccc1N(C(=O)c1snc(C(N)=O)c1N)C(C(=O)NCC1CCCO1)c1ccc2ncccc2c1 (stereo not shown)
The “hERG current change (%, negative = inhibition) at 10uM” value of the first is lower: 12.1% for the first, 12.6% for the second.

Going from `O=C(CCC(=O)c1cccs1)NC(c1ccccc1)c1ccccc1` to `Cc1ccc(CNC(=O)C(NS(=O)(=O)c2cccs2)C(C)C)cc1` (stereo not shown), the “hERG current change (%, negative = inhibition) at 10uM” value falls from 6.3% to 2.56%.

First: CSc1nsc(N/N=C/c2ccc3c(c2)OCO3)c1C#N
Second: CSc1nc2c(cc1C#N)CCC2
The “hERG current change (%, negative = inhibition) at 10uM” value of the first is higher: 12.9% for the first, 8.13% for the second.

Compared with `COc1ccc(/C=N/n2c(C)nnc2C)c(OC)c1OC`, `COC(=O)[C@]1(CC(C)C)N[C@H](c2ccc(-c3ccc(F)cc3)cc2)[C@@H]2C(=O)N(C)C(=O)[C@@H]21.O=C(O)C(F)(F)F` is lower in “hERG current change (%, negative = inhibition) at 10uM” value: 21.5% for the first, -15.7% for the second.

Compared with `CCOC(=O)N1CCN(Cc2c(F)cccc2Cl)CC1`, `Clc1cccc(OCCN2CCN(CCOc3cccc(Cl)c3)CC2)c1` is lower in “hERG current change (%, negative = inhibition) at 10uM” value: -2.03% for the first, -70.8% for the second.

First: CC(C)C[C@H](NC(=O)c1nc[nH]c1C(=O)NCCCCCNC(=O)OC(C)(C)C)C(=O)OC(C)(C)C
Second: CC(C)(C)NCC(O)COc1cccc2c1CC(O)C(O)C2 (stereo not shown)
The “hERG current change (%, negative = inhibition) at 10uM” value of the first is higher: 5.12% for the first, 2.6% for the second.

For `O=C(/C=C/c1ccccc1)NCCN1CCOCC1`, the “hERG current change (%, negative = inhibition) at 10uM” value was 20.6%.
